From PubChem BioAssay AID463173 (ICCB-Longwood Screening Facility, Harvard Medical School, 2010) come the findings set out here.

Out of some 52,000 compounds screened, about 4,300 (8.3%) were called active. No stated cut-off is given here; in the data, active means survival mostly below about 52% (no sharp cut-off); inactive means mostly above about 56%. Some of the results follow.

This experiment concerns DeltatarO mutant. In words: growth inhibition of S. aureus wild type versus tarO mutant, primary screen, teichoic acid synthesis inhibitors, RN4220, OD600 (AID 463173). The following applies: OD600, 18 h, hits give low values, screened at 18.75 µg/mL (by protocol).
On to `Cc1ccccc1C(=O)Nc1nnc2n1CCS2`, for which the survival was inactive: 75%.

Regarding `CC(C)NC(=O)N1CCN(S(=O)(=O)c2ccc3c(ccn3C)c2)CC1`, the survival is inactive: 81%.

With `Cc1ccc(C)c(NC(=O)CN(C)S(=O)(=O)c2ccc3c(c2)CCC(=O)N3)c1`, the survival was inactive: 85%.

Take `CCOC(=O)c1cc(-c2ccc(OC)cc2)n(CCC(=O)NCc2ccc(OC)cc2)c1C`: the survival was inactive: 92%.

For the compound `C=CCN1CCN(C(c2ccccc2Cl)c2nnnn2C2CCCCC2)CC1` (stereo not drawn), the survival was inactive: 97%.

Turning to `COc1ccc2nc(Cl)c(CN(C(=O)c3ccco3)C3CCCC3)cc2c1`, the survival was inactive: 114%.

`COc1ccccc1CNC(=O)CCC1N=C2c3ccccc3N=C(SCC(=O)Nc3ccc(N(C)C)cc3)N2C1=O` (stereo not drawn): the survival is inactive: 99%.

On to `Cc1cccc(OCC(=O)Nc2cc(-c3ccccc3F)nn2-c2ccccc2)c1`, for which the survival was inactive: 87%.

As for `Cc1cc(C(=O)N2CCN(c3cccc(C)c3C)CC2)c2c(C)nn(-c3ccccc3)c2n1`, the survival is inactive: 128%.

`CCOC(=O)c1c(C)[nH]c(C)c1S(=O)(=O)N1CCCC(C(=O)NCc2cccc(OC)c2)C1` (stereo not drawn): the survival was inactive: 78%.

On to `CCCC(=O)NC(C)c1nc2ccccc2n1Cc1ccccc1` (stereo not drawn), for which the survival was inactive: 101%.

Turning to `Cc1ccc(C(=O)c2cn(CC(=O)NCc3ccccc3Cl)c3nc(C)ccc3c2=O)cc1`, the survival was inactive: 86%.

Turning to `COc1cccc(N2CCN(C(=O)c3cc4c(=O)oc5ccc(C)cc5c4s3)CC2)c1`, the survival is inactive: 89%.

As for `CCCCn1nc(NC(=O)c2cccc(Cl)c2)c2cc3cccc(C)c3nc21`, the survival was inactive: 83%.

As for `CCCn1c2ccccc2c2cnn(CC(=O)N3CCCC(C)C3)c(=O)c21` (stereo not drawn), the survival is inactive: 60%.

As for `COc1cc(NC(=O)N2CCC(CN3CCOCC3)CC2)cc(OC)c1OC`, the survival is inactive: 91%.

On to `Nc1ccc2c(c1)OC1(CCCCC1)O2`, for which the survival is active: 55%.

With `CC(C)c1ccc(Nc2ncnc3onc(-c4ccc(F)cc4)c23)cc1`, the survival is inactive: 80%.

In the case of `Cc1cc(Cl)ccc1NC(=O)Cn1nnc2sc(-c3ccccc3)cc2c1=O`, the survival is inactive: 106%.

Regarding `O=C(NCC1CCCO1)Nc1c[nH]c2c(Cl)cccc2c1=O` (stereo not drawn), the survival was inactive: 97%.

Turning to `COc1ccc(OC)c2sc(N3CCN(C(=O)CCS(=O)(=O)c4ccc(F)cc4)CC3)nc12`, the survival was inactive: 94%.

Regarding `Cc1nc2nc(SCC(=O)NC3CCCCC3)nn2c(C)c1Cc1ccccc1Cl`, the survival is active: 25%.

Consider `CCCCn1c(SCC(=O)N2CCCC2)nc2ccccc2c1=O`, for which the survival is inactive: 99%.

Take `COC(=O)c1ccc2c(c1)N(Cc1ccc(Cl)cc1)C(=O)c1ccccc1S2`: the survival was inactive: 78%.

In the case of `COCCCNC(=O)CCc1c(C)nc2nc(-c3cc(OC)cc(OC)c3)nn2c1C`, the survival was inactive: 83%.

On to `CC(C)N(Cc1ccccc1)S(=O)(=O)c1ccc(-c2cc(C(F)(F)F)on2)s1`, for which the survival was inactive: 96%.

Consider `CCCC(c1nnnn1CS(=O)(=O)c1ccc(C)cc1)N1CCC(C(N)=O)CC1` (stereo not drawn), for which the survival was inactive: 89%.

Consider `COc1ccc2[nH]c(=O)c(CN(Cc3ccco3)C(=S)NCc3ccco3)cc2c1`, for which the survival is active: 65%.

In the case of `CC(C)OCCCNC(=O)CN1C(=O)COc2ccc(S(=O)(=O)N3CCCCCC3)cc21`, the survival was inactive: 90%.

Turning to `CCc1ccccc1-n1c(C)nc2cc(C(=O)NCCc3ccc(Cl)cc3)ccc21`, the survival is inactive: 91%.

In the case of `CC(C)c1ccc(N(CC(N)=O)S(C)(=O)=O)cc1`, the survival is inactive: 85%.

In the case of `Cc1ccc(CNC(=O)C2CCN(S(=O)(=O)c3cn(C)cn3)CC2)cc1`, the survival was inactive: 115%.

`O=C(NCCCc1nc2ccccc2n1Cc1ccc(Cl)cc1)C1CCCCC1`: the survival was inactive: 64%.

Turning to `Cc1ccc(-n2ncc(C(=O)NCCN3CCCC3)c2C2CCN(C(=O)OC(C)(C)C)CC2)cc1C`, the survival was inactive: 94%.

`Cn1nnc2c(N3CCN(c4cccc(Cl)c4)CC3)ncnc21`: the survival is inactive: 71%.

For `COCCN(Cc1cccs1)S(=O)(=O)c1cc(-c2cc(C)no2)ccc1C`, the survival was inactive: 119%.

On to `COCCCNC(=O)c1c(NC(=O)Cc2coc3c(C)c(C)ccc23)sc2c1CCCC2`, for which the survival is inactive: 62%.

Regarding `COc1cccc(CNC(=O)CCS(=O)(=O)c2ccc3c(c2)oc(=O)n3C)c1`, the survival was inactive: 72%.

As to `CCC(Sc1nnc2c(n1)[nH]c1ccccc12)C(=O)Nc1nnc(C(C)C)s1` (stereo not drawn), the survival was inactive: 67%.

For the compound `COC(=O)C1C(C(C)C)N(c2ccccc2)OC1(C)O` (stereo not drawn), the survival is inactive: 82%.

Consider `CCCCOC(=O)c1c(N)n(-c2ccc(OC)cc2OC)c2nc3ccccc3nc12`, for which the survival is inactive: 89%.

Regarding `CCCc1cc(NCCc2ccc(OC)cc2)n2ncnc2n1`, the survival was inactive: 89%.

As to `CCCCN(CC)CCCNC(=O)CS(=O)(=O)Cc1nc(-c2ccc(C)cc2)oc1C`, the survival was inactive: 96%.

In the case of `CCOc1ccc(CCNC(=O)C2CCN(C(=O)N3CC(CC)Oc4ccccc43)CC2)cc1` (stereo not drawn), the survival was inactive: 70%.

On to `CCCOc1ccc(C(=O)Nc2ccc3oc(-c4ccncc4)nc3c2)cc1`, for which the survival is inactive: 62%.

For the compound `O=C(Nc1nnc(N2CCCCCC2)s1)Nc1cc(F)ccc1F`, the survival is inactive: 103%.

Regarding `CCOCCCN(Cc1ccco1)S(=O)(=O)c1cc2c(cc1Cl)NC(=O)CO2`, the survival is inactive: 72%.

Regarding `Cc1c2cnn(CC(=O)NCc3ccc(F)cc3)c(=O)c2c(C)n1Cc1cccc(Cl)c1`, the survival was inactive: 70%.

On to `O=C(NCc1ccc(Cl)cc1)c1cnc2sc(N3CCOCC3)nn2c1=O`, for which the survival is active: 52%.

Consider `Cc1ccccc1-c1noc(-c2ccc(N3CCCCC3)c([N+](=O)[O-])c2)n1`, for which the survival was inactive: 103%.

Turning to `COc1cc(NC(=O)CSc2nnc(C)n3c2cc2oc(C)cc23)cc(OC)c1`, the survival was inactive: 63%.

In the case of `CCc1ccc(OCC(=O)NC(Cc2c[nH]c3ccccc23)C(=O)O)cc1` (stereo not drawn), the survival is active: 40%.

On to `CC(C)C(=O)Nc1ccc2nc(SCC(=O)N3CCCC3)sc2c1`, for which the survival was inactive: 84%.

For the compound `CCCN(C(=O)c1cc2c(=O)oc3ccccc3c2s1)c1ccc(CC)cc1`, the survival is active: 31%.

Regarding `Cc1ccccc1Nc1cc(C(=O)NCCCN2CCN(c3cccc(Cl)c3)CC2)c2ccccc2n1`, the survival was inactive: 88%.

Turning to `Cc1c(Cl)cccc1NC(=O)N1CCN(C(=O)c2nsc3ccccc23)CC1`, the survival is inactive: 128%.

Turning to `CCc1ccc(NC(=O)c2ccc(CN3CC(=O)N4CCCCC4C3=O)cc2)cc1` (stereo not drawn), the survival is inactive: 66%.

As to `Cc1ccc(C(C)C)c(OCCSc2nc(-c3ccccc3F)nc3cc(=O)[nH]n23)c1`, the survival was inactive: 83%.
